Substitutions are numbered along the chain they refer to.
Columns and labels:
rat IL-11 [1] = molecular target: T1, rat IL-11 (rat, UniProt Q99MF5 22-199); test: cell-based or functional assay
T1 sequence: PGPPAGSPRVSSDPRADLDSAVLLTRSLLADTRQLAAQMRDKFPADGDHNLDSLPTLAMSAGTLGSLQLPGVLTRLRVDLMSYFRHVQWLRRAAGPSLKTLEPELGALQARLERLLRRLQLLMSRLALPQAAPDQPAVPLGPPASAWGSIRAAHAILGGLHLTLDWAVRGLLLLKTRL

human IL-11 [2] = molecular target: T2, human IL-11 (human, UniProt P20809 22-199); test: cell-based or functional assay
T2 sequence: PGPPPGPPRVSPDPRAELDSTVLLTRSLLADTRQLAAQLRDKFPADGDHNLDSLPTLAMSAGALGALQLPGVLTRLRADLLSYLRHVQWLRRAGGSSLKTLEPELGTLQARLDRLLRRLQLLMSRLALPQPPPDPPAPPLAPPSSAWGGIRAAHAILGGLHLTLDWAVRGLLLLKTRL

murine IL-11 [3] = molecular target: T3, murine IL-11 (mouse, UniProt P47873 22-199); test: cell-based or functional assay
T3 sequence: T1 sequence with N50S, F84L, A94G, A137V, V138I

cynomolgus IL-11 [4] = molecular target: T4, cynomolgus IL-11 (cynomolgus, UniProt P20808 22-199); test: cell-based or functional assay
T4 sequence: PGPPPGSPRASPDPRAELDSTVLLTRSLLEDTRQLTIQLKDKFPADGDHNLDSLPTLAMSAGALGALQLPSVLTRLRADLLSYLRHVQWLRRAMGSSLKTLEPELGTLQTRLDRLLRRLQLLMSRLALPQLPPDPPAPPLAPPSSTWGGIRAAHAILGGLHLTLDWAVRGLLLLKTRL

rat IL-11 [5] = molecular target: T1, rat IL-11; test: SPR (Biacore), 37 C, antibody captured via anti-Fc, IL-11 as analyte
Description: (§1) To assess the binding kinetics and affinity of anti-IL-11 bispecific antibodies as well as their species cross-reactivity profile, binding assays were conducted using surface plasmon resonance (SPR). […] Antibodies were captured either via anti-human Fc IgGs (“Human antibody capture kit”, Order No. BR100839, Cytiva) or via anti-mouse Fc IgGs (“Mouse antibody capture kit, Order No. BR100383, Cytiva) covalently amine coupled to a Series S CM5 sensor chip (Cytiva) depending on the isotype. The amine coupling was carried out according to the manufacturer's instructions using 1-ethyl-3-(3-dimethylaminopropyl) carbodiimide hydrochloride (EDC), N-hydroxysuccinimide (NHS) and ethanolamine HCl, pH 8.5 (“Amine Coupling Kit” BR-1000-50, Cytiva.). Human, mouse, cynomolgus or rat IL-11 was used as analyte at several dilutions within the concentration range from 0.05-200 nM. For binding assays with only one concentration 200 nM IL-11 was used. The sensor surface was regenerated with glycine pH 1.7 after each antigen injection. Obtained sensorgrams were double referenced (subtraction of reference flow cell signal and buffer injection) and were fitted to a 1:1 Langmuir binding model to derive kinetic data using the Biacore T200 Evaluation software or the Biacore Insight software.
(§2) If no value is reported, there was either no binding or very low binding and multiphasic binding behavior.

human IL-11 [6] = molecular target: T2, human IL-11; test: as above
Description: as §1, §2

murine IL-11 [7] = molecular target: T3, murine IL-11; test: as above
Description: as §1, §2

cynomolgus IL-11 [8] = molecular target: T4, cynomolgus IL-11; test: as above
Description: as §1, §2

murine IL-11 [9] = molecular target: T3, murine IL-11; test: Tri-complex ELISA, mIL-11 + mIL-11Ra-Fc + mgp130-Fc, inhibition of complex formation

- Efficacy (%), Stat3 reporter gene assay (rat IL-11 [1]): 90.9%
- IC50, Stat3 reporter gene assay (rat IL-11 [1]): 1.3 nM
- Efficacy (%), Stat3 reporter gene assay (human IL-11 [2]): 85.1%
- IC50, Stat3 reporter gene assay (human IL-11 [2]): 1.2 nM
- Efficacy (%), Stat3 reporter gene assay (murine IL-11 [3]): 97.2%
- IC50, Stat3 reporter gene assay (murine IL-11 [3]): 1.4 nM
- Efficacy (%), Stat3 reporter gene assay (cynomolgus IL-11 [4]): 89.7%
- IC50, Stat3 reporter gene assay (cynomolgus IL-11 [4]): 1 nM
- Kd (rat IL-11 [5]): 0.25 nM
- Kd (human IL-11 [6]): 0.18 nM
- Kd (murine IL-11 [7]): 0.13 nM
- Kd (cynomolgus IL-11 [8]): 0.24 nM
- Efficacy (%) (murine IL-11 [9]): 103%
- IC50 (murine IL-11 [9]): 0.64 nM
B1: TPP-29536 (antibody, human IgG1, lambda)
heavy: EVQLLESGGGLVQPGGSLRLSCAASGFTFSSYGMHWVRQAPGKGLEWVAVISYDGSYKYYADSVKGRFTISRDNSKNTLYLQMNSLRAEDTAVYYCAAGVPDYWGQGTLVTVSSASTKGPSVFPLAPSSKSTSGGTAALGCLVKDYFPEPVTVSWNSGALTSGVHTFPAVLQSSGLYSLSSVVTVPSSSLGTQTYICNVNHKPSNTKVDKKVEPKSCDKTHTCPPCPAPPVAGPSVFLFPPKPKDTLMISRTPEVTCVVVGVSHEDPEVKFNWYVDGVEVHNAKTKPREEQYNSTYRVVSVLTVLHQDWLNGKEYKCKVSNKQLPSPIEKTISKAKGQPREPQVYTLPPSRDELTKNQVSLTCLVKGFYPSDIAVEWESNGQPENNYKTTPPVLDSDGSFFLYSKLTVDKSRWQQGNVFSCSVMHEALHNHYTQKSLSLSPGK
light: QSVLTQPPSASGTPGQRVTISCSGSSSNIGSDYDVHWYQQLPGTAPKLLIYSNEERPSGVPDRFSGSKSGTSASLAISGLRSEDEADYYCSAWDSSLSGPVFGGGTKLTVLGQPKAAPSVTLFPPSSEELQANKATLVCLISDFYPGAVTVAWKADSSPVKAGVETTTPSKQSNNKYAASSYLSLTPEQWKSHRSYSCQVTHEGSTVEKTVAPTECS
notes: hIgG-lambda-HS (human IgG1 with Fc-silencing mutations)

From patent US20240317847A1 (Bayer, published 2024)
